{"source": "paper PMC4242493", "note": "The list shows a part of the results. The list includes weakly bound sequences."}
{"molecular_target": "MaxL homodimer (UniProt P61244)", "sequence (P61244 whole entry)": "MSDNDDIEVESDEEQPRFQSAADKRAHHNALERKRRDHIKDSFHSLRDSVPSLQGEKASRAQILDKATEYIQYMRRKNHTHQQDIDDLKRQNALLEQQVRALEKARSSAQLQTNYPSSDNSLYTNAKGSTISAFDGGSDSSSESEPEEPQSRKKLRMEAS", "assay": "universal protein-binding microarray (PBM)", "conditions": "PBS-based mixture, 10 nM His-tagged protein dimer, 2% milk, 200 ng/uL BSA, 50 ng/uL salmon testes DNA, 0.02% TX-100; detection with Alexa 488 anti-His …; high values mean tight binding; most listed sequences are background and not binding sites; double strand, one strand shown"}
{"sequence": "ACACTGGT", "binding signal (normalized occupancy)": 0.0781}
{"sequence": "TCACTCGA", "binding signal (normalized occupancy)": 0.0746}
{"sequence": "CGATAGTA", "binding signal (normalized occupancy)": 0.0757}
{"sequence": "AGTAATTG", "binding signal (normalized occupancy)": 0.0708}
{"sequence": "GGATCTCA", "binding signal (normalized occupancy)": 0.0742}
{"sequence": "TCACATGA", "binding signal (normalized occupancy)": 0.109}
{"sequence": "ATGCTGGC", "binding signal (normalized occupancy)": 0.0864}
{"sequence": "CCTGACTA", "binding signal (normalized occupancy)": 0.0777}
{"sequence": "CCTCCAAA", "binding signal (normalized occupancy)": 0.0742}
{"sequence": "AACCCATA", "binding signal (normalized occupancy)": 0.0815}
{"sequence": "ACTACCCT", "binding signal (normalized occupancy)": 0.0795}
{"sequence": "CCTCGCCA", "binding signal (normalized occupancy)": 0.074}
{"sequence": "CATACCGA", "binding signal (normalized occupancy)": 0.08}
{"sequence": "ATTAAACA", "binding signal (normalized occupancy)": 0.0726}
{"sequence": "CCAGGTGA", "binding signal (normalized occupancy)": 0.0867}
{"sequence": "CGTTATAA", "binding signal (normalized occupancy)": 0.079}
{"sequence": "GACCACTA", "binding signal (normalized occupancy)": 0.0785}
{"sequence": "TCAAAAAA", "binding signal (normalized occupancy)": 0.0703}
{"sequence": "TCCGCCAA", "binding signal (normalized occupancy)": 0.0678}
{"sequence": "GAGCTACC", "binding signal (normalized occupancy)": 0.0676}
{"sequence": "GATTTGAA", "binding signal (normalized occupancy)": 0.076}
{"sequence": "TGGAACAA", "binding signal (normalized occupancy)": 0.0712}
{"sequence": "CACTGTCC", "binding signal (normalized occupancy)": 0.0763}
{"sequence": "CCATCACG", "binding signal (normalized occupancy)": 0.0857}
{"sequence": "AGAGCTGC", "binding signal (normalized occupancy)": 0.0725}
{"sequence": "AGGTACAT", "binding signal (normalized occupancy)": 0.0821}
{"sequence": "CTAGCTAC", "binding signal (normalized occupancy)": 0.0765}
{"sequence": "GGACAGAC", "binding signal (normalized occupancy)": 0.0754}
{"sequence": "ACAGCATG", "binding signal (normalized occupancy)": 0.127}
{"sequence": "GTCCGCAC", "binding signal (normalized occupancy)": 0.0754}
{"sequence": "AAAGTGAG", "binding signal (normalized occupancy)": 0.0728}
{"sequence": "CAGTTCAG", "binding signal (normalized occupancy)": 0.0712}
{"sequence": "GGTAGTAA", "binding signal (normalized occupancy)": 0.0771}
{"sequence": "GGATTACC", "binding signal (normalized occupancy)": 0.075}
{"sequence": "CATCTAAC", "binding signal (normalized occupancy)": 0.0854}
{"sequence": "CAACTCGA", "binding signal (normalized occupancy)": 0.0755}
{"sequence": "TCTATACA", "binding signal (normalized occupancy)": 0.0873}
{"sequence": "AATCGCAC", "binding signal (normalized occupancy)": 0.0779}
{"sequence": "AATGACAT", "binding signal (normalized occupancy)": 0.0822}
{"sequence": "AAACTCAC", "binding signal (normalized occupancy)": 0.0759}
{"sequence": "CGTTGTAA", "binding signal (normalized occupancy)": 0.0757}
{"sequence": "GTATGCCA", "binding signal (normalized occupancy)": 0.0806}
{"sequence": "GATGCAAA", "binding signal (normalized occupancy)": 0.0761}
{"sequence": "AAGAGAAA", "binding signal (normalized occupancy)": 0.0696}
{"sequence": "ACGGTTGG", "binding signal (normalized occupancy)": 0.0758}
{"sequence": "GCTGGTCC", "binding signal (normalized occupancy)": 0.0689}
{"sequence": "CTCAACGC", "binding signal (normalized occupancy)": 0.0793}
{"sequence": "AGAGTGAA", "binding signal (normalized occupancy)": 0.0757}
{"sequence": "AAGAACTC", "binding signal (normalized occupancy)": 0.0732}
{"sequence": "CGATTAAG", "binding signal (normalized occupancy)": 0.0743}
{"sequence": "AAATCCTT", "binding signal (normalized occupancy)": 0.0722}
{"sequence": "ACGCCAGA", "binding signal (normalized occupancy)": 0.0782}
{"sequence": "AGTCTACA", "binding signal (normalized occupancy)": 0.0708}
{"sequence": "AGGGCACT", "binding signal (normalized occupancy)": 0.0712}
{"sequence": "CATACGCA", "binding signal (normalized occupancy)": 0.0827}
{"sequence": "ATTAGCAG", "binding signal (normalized occupancy)": 0.075}
{"sequence": "GTGCTCGA", "binding signal (normalized occupancy)": 0.0761}
{"sequence": "TAGTTTGA", "binding signal (normalized occupancy)": 0.0723}
{"sequence": "GGAAATCC", "binding signal (normalized occupancy)": 0.0712}
{"sequence": "ATAGGTGA", "binding signal (normalized occupancy)": 0.0833}
{"sequence": "CCGCACAG", "binding signal (normalized occupancy)": 0.0705}
{"sequence": "CCGGCTGA", "binding signal (normalized occupancy)": 0.0672}
{"sequence": "AGTTCAAG", "binding signal (normalized occupancy)": 0.0686}
{"sequence": "AGCAGTCG", "binding signal (normalized occupancy)": 0.068}
{"sequence": "GCAGCTCC", "binding signal (normalized occupancy)": 0.0685}
{"sequence": "CGAGGGAA", "binding signal (normalized occupancy)": 0.0785}
{"sequence": "GCATGCAC", "binding signal (normalized occupancy)": 0.11}
{"sequence": "CGCAGAAG", "binding signal (normalized occupancy)": 0.0673}
{"sequence": "ATTTCGAA", "binding signal (normalized occupancy)": 0.0735}
{"sequence": "CACACCGC", "binding signal (normalized occupancy)": 0.0826}
{"sequence": "GTACTCTA", "binding signal (normalized occupancy)": 0.0757}
{"sequence": "CAGGCGTC", "binding signal (normalized occupancy)": 0.0727}
{"sequence": "ACCACCTA", "binding signal (normalized occupancy)": 0.082}
{"sequence": "AACAAACG", "binding signal (normalized occupancy)": 0.0769}
{"sequence": "CCCAGTCA", "binding signal (normalized occupancy)": 0.0744}
{"sequence": "GACCGAGC", "binding signal (normalized occupancy)": 0.0684}
{"sequence": "AACGCGGA", "binding signal (normalized occupancy)": 0.0818}
{"sequence": "CAGGAGCG", "binding signal (normalized occupancy)": 0.0709}
{"sequence": "CCCTTACA", "binding signal (normalized occupancy)": 0.0789}
{"sequence": "GCTCTGCA", "binding signal (normalized occupancy)": 0.0703}
{"sequence": "ATCCAAGA", "binding signal (normalized occupancy)": 0.0702}
{"sequence": "TCGGTGAA", "binding signal (normalized occupancy)": 0.0747}
{"sequence": "TTCCAGAA", "binding signal (normalized occupancy)": 0.0713}
{"sequence": "ACTCTCAA", "binding signal (normalized occupancy)": 0.0735}
{"sequence": "ATGCATCC", "binding signal (normalized occupancy)": 0.0863}
{"sequence": "CATAGACC", "binding signal (normalized occupancy)": 0.0735}
